Results reported in PubChem BioAssay AID1508623 (National Center for Advancing Translational Sciences (NCATS), 2021).
Out of some 48,000 compounds screened, about 450 (0.94%) were called active. Not shown: some 19% with an inconclusive outcome. Calls follow the shape of the dose curve; as a rule, active = well fitted inhibition curve with a large enough effect; inconclusive = small, poorly fitted or top-dose-only effect; inactive = no such curve, though single readings can be large or run the other way. The list shows a part of the results.

test: Primary qHTS for Identification of Small Molecule Inhibitors of Huntingtin Promoter Activity; details: HEK293 HTT promoter firefly luciferase reporter (activity 0% = vehicle and -100% = no light), 24 h; series mostly up to 57.5 µM; activity change, negative = inhibition: at the top concentration; also: nearly all actives have a fitted effect of over 50% in size
Procedure, shortened: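 Firefly luciferase readout (Dual-Glo, 10 min RT) after 24 h, 37 °C compound exposure (final up to 57.5 uM) of HEK293 reporter cells cultured 24 h beforehand; PTC124 at 50 uM final as control inhibitor; activity scaled vehicle 0%, zero RLU -100%.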

Activity change, negative = inhibition, inactive:
CC1CCN(S(=O)(=O)c2csc(C(N)=O)c2)CC1 -11.1%, CCCOc1ccc(C2c3c(oc4ccc(F)cc4c3=O)C(=O)N2CCc2ccc(OC)cc2)cc1 (stereo unspecified) -1.94%, Cc1ccc(CSc2nc3cccnc3n2Cc2ccc(C(=O)NC3CCCCC3)cc2)cc1 -4.11%, O=C(CSc1oc(-c2ccc(F)cc2)nc1S(=O)(=O)c1ccc(Br)cc1)NC1CCCCC1 -13.2%, CC(=O)Nc1nonc1-c1nnc(SCC(=O)Nc2ccc(C)c(Cl)c2)n1C -17.7%, CCOc1ccc2c(c1)c(=O)c(S(=O)(=O)c1ccc(C)cc1)cn2Cc1ccccc1Cl -22.6%, COc1ccc(-c2nc(S(=O)(=O)c3ccc(C)cc3)c(N3CCCCC3)o2)cc1 2.18%, Cc1ccc(CNC(=O)CN2C(=O)CC(c3ccc(C)c(C)c3)=Nc3ccccc32)cc1 8.65%, CCCCOC(=O)c1ccc(Nc2ncnc3c2cnn3-c2cccc(C)c2)cc1 -14.7%, Cc1cccc(CN2CCC(CNc3ncnc4onc(-c5ccc(Cl)cc5)c34)CC2)c1 -22.4%, COc1ccc(NC(=O)C2CCCN(S(=O)(=O)c3cccc4nonc34)C2)cc1Cl (stereo unspecified) -17%, Cn1cnc([N+](=O)[O-])c1Sc1ncnc2nc[nH]c12 -32.5%, Clc1cccc(-n2cc(-c3ccccc3)c3c(NC4CCCC4)ncnc32)c1 -22%, Cc1ccc(-c2nnc3c4ccccc4c(C)nn23)cc1NC(=O)c1cccc(Br)c1 -2.4%, O=C(NCc1cccc(Cl)c1)NCc1noc2ccccc12 2.41%, COc1cccc(N2CCN(c3ncnc4c3c(-c3ccccc3)cn4-c3ccc(F)cc3)CC2)c1 -16.8%, CCCCN(CC)C(=O)CCCn1c(=O)c2cccn2c2ccccc21 -6.16%, COc1ccc(CNC(=O)CCNS(=O)(=O)c2ccc3c(c2)CCCC(=O)N3)cc1 -24.8%, Cc1ccc(Cn2c(CCNC(=O)C(C)C)nc3ccccc32)cc1 21%, O=C(Cn1nc(-c2ccc(Cl)cc2)ccc1=O)NCCc1ccccc1 -3.18%, CCOC(=O)CCc1c(C)nc2c(c(C)nn2-c2ccc(C)cc2)c1C -4.91%, O=C(C1CCC1)N1CCc2cc(S(=O)(=O)NCCc3ccccc3)ccc21 -25.9%, Cc1cccc(CSc2ncccc2C(=O)O)c1 26.5%, CCOc1ccccc1NC(=O)Cn1c(=O)n(C(C)C)c(=O)c2oc3ccccc3c21 -6.3%, COc1ccc(-n2c(=O)c3ccc(C(=O)NCc4ccc(C)cc4)cc3n(Cc3ccc(Cl)cc3)c2=O)cc1 -7.66%, COCCn1c(C)cc(O)c(C(c2ccc(F)cc2)N2CCC(C)CC2)c1=O (stereo unspecified) -7.74%, COc1ccc(-n2nc3c(N4CCCC(C(=O)NCCc5ccccc5C)C4)nnc(C)c3c2C)cc1 (stereo unspecified) -17.6%, Cc1ccc(N(CC(=O)Nc2ccc(C)c(Cl)c2)S(=O)(=O)c2cccs2)cc1 -24.7%, COc1cccc(NC(=O)Cn2c(=O)n(-c3ccccc3)c(=O)c3c2c2cc(OC)ccc2n3C)c1 -19.2%, O=S(=O)(c1ccc(-c2cnc(C3CC3)o2)cc1)N1CCN(c2ccccc2)CC1 -17.8%, CCc1cccc(NC(=O)c2ccc3c(c2)c(C)c(C)n3Cc2ccc(F)cc2)c1 -27.3%, CCOc1ccccc1NC(=O)c1c(NC(=O)Cc2ccc(OC)cc2)sc2c1CCC2 27.9%, Cc1ccccc1OCC(=O)OCc1cc(=O)n2nc(-c3cccs3)sc2n1 -5.49%, COc1ccccc1CNC(=O)c1nnn(CC(=O)Nc2c(C)cccc2C)c1N -2.15%, Cn1c(C(=O)Nc2ccc(OC(F)(F)F)cc2)cc2c(=O)n3ccccc3nc21 -0.0413%, Cc1ccc(CNC(=O)CN2N=C(c3ccccc3)CCC2=O)cc1 3.83%, Cc1cccc(CSc2nnc3[nH]c(=O)cc(-c4ccccc4)n23)c1 -10.4%, Cc1cc(NC(=O)C2CCCN(S(=O)(=O)c3cccc4nsnc34)C2)ccc1Br (stereo unspecified) -0.284%, O=C(Nc1cc(Cl)cc(Cl)c1)c1ccc(F)c(S(=O)(=O)N2CCN(c3ccccc3F)CC2)c1 -14.9%, CCOc1ccc(NC(=O)N2CCC(N3CCCCC3)CC2)cc1 6.95%, Cc1ccc(NC(=O)COc2ccc3oc4c(c3c2)CCCC4)cc1C -3.18%, Cc1ccc(CN2COc3c(Cl)cc4c(-c5ccccc5)cc(=O)oc4c3C2)cc1 -0.59%, O=C(CN1C(=O)COc2ccc(S(=O)(=O)N3CCOCC3)cc21)N1CCN(c2ccccc2F)CC1 -12.2%, Cc1ccc(NC(=O)C(=O)NCC2(c3ccccc3)CCCC2)cc1C 6.67%, CCc1cccc(NC(=O)c2c(C)oc3nc(C)nc(N4CCCC4)c23)c1 -7.31%, CCCOc1ccc(CNC(=O)CN2C(=O)c3cccnc3Oc3ccc(C)cc32)cc1 10.9%, Nc1nc2ncc(CNc3ccc(C(=O)N[C@@H](CCC(=O)O)C(=O)O)cc3)nc2c(=O)[nH]1 5.94%, COC(=O)C1CCN(c2csc3ccc(Cl)cc3c2=O)CC1 11.7%, CCC[C@H](N[C@@H](C)C(=O)N1[C@@H]2CCCC[C@H]2C[C@H]1C(=O)O)C(=O)OCC -2.06%, O=C(NCCCO)c1nn(-c2ccc(Cl)cc2)nc1CO 0.994%, CCOc1ccc2oc(=O)cc(CN3CCN(c4ccccc4OC)CC3)c2c1 -12.2%, CCc1ccc(OCc2cc(=O)n3cc(C)sc3n2)cc1 -1.37%, COc1cc(OC)c(OC)cc1CNCCCSc1nnnn1C -6.47%, COc1cccc(NC(=O)Cn2c(=O)n(CCc3ccc(OC)c(OC)c3)c(=O)c3ccccc32)c1 -2.65%, CC(C)[C@H](CO)Nc1nc(Nc2ccc(C(=O)O)c(Cl)c2)c2ncn(C(C)C)c2n1 -4.8%, CCc1ccc(NCc2cc3ccc(OC)cc3n(CC(=O)Nc3ccc(C)c(Cl)c3)c2=O)cc1 -18.5%, COc1ccc(C(=O)N(Cc2cc(OC)c(OC)c(OC)c2)C2CCS(=O)(=O)C2)cc1Cl (stereo unspecified) -9.45%, CC(C)Oc1ccc(CNC(=O)Cn2nc(N3CCN(c4ccccc4)CC3)ccc2=O)cc1 -15.2%, Cn1cc(S(=O)(=O)N2CCOCC2)cc1C(=O)Nc1cccc(C#N)c1 -2.09%, CCC(=O)N1CCc2cc(OC)c(OC)cc2C1COc1ccc2c(C)cc(=O)oc2c1 (stereo unspecified) -13.3%, CC(C)c1ccc(CNc2n[nH]c(-c3ccco3)n2)cc1 30.3%, COCCNC(=O)C1=CC(c2ccc3c(c2)OCO3)=NS(=O)(=O)N1C -15.2%, COc1ccc(C2c3c(n(C)c4ccccc34)C(=O)N2CC(=O)Nc2ccc(F)cc2)cc1 (stereo unspecified) -20.6%, Cc1ccc(C(=O)c2oc3ccccc3c2NC(=O)Cc2ccccc2)cc1 -4.55%, Cc1ccc(CSc2nc(-c3ccccc3C)nc3c2Cc2c(CO)cnc(C)c2O3)cc1 -12.4%, COc1ccc(-c2ccc(=O)n(CC(=O)Nc3ccc(OC)c(OC)c3)n2)cc1 -28%, CCOc1ccc(-c2nc(SCC(=O)Nc3cc(F)ccc3F)n3[nH]c(=O)cc3n2)cc1 -4.78%, CCn1nnc2cc(C(=O)Nc3ccc(Br)cc3F)ccc21 21.4%, CCOC(=O)c1c(S(=O)(=O)N2CCC(C(=O)N3CCN(c4ccc(F)cc4)CC3)CC2)c(C)n(C)c1C -12.5%, Cn1ncc2c(NCc3ccc(F)cc3)ncnc21 -10.3%, Cc1ccc(NC(=O)C2CCCN2S(=O)(=O)c2ccc3c(c2)n(C)c(=O)c(=O)n3C)cc1C (stereo unspecified) -12.3%, O=C1N(Cc2ccccc2)c2ccccc2C1(O)c1c[nH]c2ccccc12 (stereo unspecified) -20%, Cn1c(=O)c2c(SCC(=O)N3CCc4ccccc43)nc(-c3ccc(Cl)cc3)nc2n(C)c1=O -7.37%, CC(=O)Nc1cccc(C(=O)NCc2ccc3c(c2)CCN3C(=O)c2ccc(F)cc2)c1 -7.84%, Cc1cc(NC(=O)c2ccc(NC(=O)CCS(=O)(=O)c3cccs3)cc2)ccc1Br 10.3%, COc1cccc(NS(=O)(=O)c2ccc3[nH]cc(C(=O)N4CCCC4)c(=O)c3c2)c1 -3.17%, CC(=O)c1ccc(NC(=O)COCc2cc(-c3ccc(F)cc3)on2)cc1 -4.36%, COc1ccccc1NC(=O)C1=C(C)Nc2nc(SCc3ccccc3)nn2C1c1ccncc1 (stereo unspecified) -7.21%, COc1cc(OC)c(N(C)C(=O)c2sc3nc4n(c(=O)c3c2C)CCCCC4)cc1Cl 9.31%, COc1cc(NC(=O)Cn2nc3c(cc2=O)CC(C)CC3)cc(OC)c1OC (stereo unspecified) -6.94%, CC(C)N(Cc1ccccc1)C(=O)CN1C(=O)CSc2ccc(S(=O)(=O)N3CCCC3)cc21 -26.1%, CCn1cc(C(=O)N2CCN(c3ccc(OC)cc3)CC2)c(=O)c2cc(S(=O)(=O)N3CCOCC3)ccc21 -1.46%, COc1ccc2[nH]cc(CCN=C(NC(=O)c3ccccc3C)Nc3nc(C)cc(C)n3)c2c1 -12.1%, COc1ccc(OCC(=O)Nc2ccc(-c3nc4cc(C)c(C)cc4o3)cc2)cc1 39.9%, O=C(Cn1ncc2c3ccccc3n(Cc3ccc(F)cc3)c2c1=O)NCCCN1CCCCC1 -16.1%, N#Cc1c[nH]n2c(NC3CCCC3)c(-c3ccc(Cl)cc3)nc12 -13.1%, Cc1ccccc1C(C(=O)NC1CCCCC1)N(C(=O)CNc1ccc(C#N)cc1)c1cccc(F)c1 (stereo unspecified) 7.2%, CCc1ccc(NC(=O)C(=O)NCCc2sc3nc(-c4ccc(OC)cc4)nn3c2C)cc1 -9.83%, Cc1ccc(CNc2nc3ccc(C)cc3n3nnnc23)cc1 -6.52%, O=C(CCS(=O)(=O)c1cccc2nonc12)Nc1ccc(Br)cc1 -24.4%, CC1=C(C(=O)Nc2ccccc2)C(c2ccc(O)cc2)n2nc(SCc3ccccc3)nc2N1 (stereo unspecified) -1.04%, COc1ccc(Cl)cc1NC(=O)CCn1c(=O)oc2ccccc21 -8.55%, Cc1ccccc1NC(=O)CSc1ccc(-c2cccs2)nn1 -7.09%, O=c1[nH]c(SCc2ccc([N+](=O)[O-])cc2)nc2c1CCCC2 -20.6%, O=C(CSc1nccn1Cc1ccccc1)Nc1ccc2c(c1)OCCO2 21.7%, O=C(CSc1nnc(COc2ccccc2)o1)Nc1cc(C(F)(F)F)ccc1Cl -9.79%
